# This is one part of the list.
# Tests used:
# Assay in all cases: glycan array binding signal (z-score within array); higher = stronger binding
# Details in all cases: glycan notation: IUPAC condensed, linker removed
# Gal(a1-3)Gal(b1-3)GlcNAc = target: Gal(a1-3)Gal(b1-3)GlcNAc
# Outline: (§1)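 Negative Z-scores can be read as non-binding. The Z-score is calculated within each array and then averaged across arrays of one protein sequence at different concentrations or buffers and across linkers. Arrays, 3228 in all, were curated from the Consortium for Functional Glycomics database and kept only where the protein sequence was available.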
# [1] = target: Gal(a1-3)Gal(b1-3)GlcNAc(b1-2)Man(a1-3)[Gal(a1-3)Gal(b1-3)GlcNAc(b1-2)Man(a1-6)]Man(b1-4)GlcNAc(b1-4)GlcNAc
# Outline: as §1
# [2] = target: Gal(a1-3)Gal(b1-3)GlcNAc(b1-3)GalNAc
# Outline: as §1
# [3] = target: Gal(a1-3)Gal(b1-3)GlcNAc(b1-6)GalNAc
# Outline: as §1
# [4] = target: Gal(a1-3)Gal(b1-3)[Fuc(a1-4)]GlcNAc(b1-2)Man(a1-3)[Gal(a1-3)Gal(b1-3)[Fuc(a1-4)]GlcNAc(b1-2)Man(a1-6)]Man(b1-4)GlcNAc(b1-4)GlcNAc
# Outline: as §1
# Gal(a1-3)Gal(b1-4)Glc = target: Gal(a1-3)Gal(b1-4)Glc
# Outline: as §1
# Gal(a1-3)Gal(b1-4)GlcNAc = target: Gal(a1-3)Gal(b1-4)GlcNAc
# Outline: as §1
# [5] = target: Gal(a1-3)Gal(b1-4)GlcNAc(b1-3)GalNAc
# Outline: as §1
# [6] = target: Gal(a1-3)Gal(b1-4)GlcNAc(b1-6)GalNAc
# Outline: as §1
# [7] = target: Gal(a1-3)Gal(b1-4)[Fuc(a1-3)]GlcNAc
# Outline: as §1
# [8] = target: Gal(a1-3)Gal(b1-4)[Fuc(a1-3)]GlcNAc(b1-2)Man(a1-3)[Gal(a1-3)Gal(b1-4)[Fuc(a1-3)]GlcNAc(b1-2)Man(a1-6)]Man(b1-4)GlcNAc(b1-4)GlcNAc
# Outline: as §1
# Gal(a1-3)GalNAc = target: Gal(a1-3)GalNAc
# Outline: as §1
# [9] = target: Gal(a1-3)[Gal(a1-4)]Gal(b1-4)GlcNAc
# Outline: as §1
# [10] = target: Gal(a1-4)Gal(b1-3)GlcNAc(b1-2)Man(a1-3)[Gal(a1-4)Gal(b1-3)GlcNAc(b1-2)Man(a1-6)]Man(b1-4)GlcNAc(b1-4)GlcNAc
# Outline: as §1
# Gal(a1-4)Gal(b1-4)Glc = target: Gal(a1-4)Gal(b1-4)Glc
# Outline: as §1
# Gal(a1-4)Gal(b1-4)GlcNAc = target: Gal(a1-4)Gal(b1-4)GlcNAc
# Outline: as §1
# [11] = target: Gal(a1-4)Gal(b1-4)GlcNAc(b1-2)Man(a1-3)[Gal(a1-4)Gal(b1-4)GlcNAc(b1-2)Man(a1-6)]Man(b1-4)GlcNAc(b1-4)GlcNAc
# Outline: as §1
# [12] = target: Gal(a1-4)Gal(b1-4)GlcNAc(b1-3)Gal(b1-4)Glc
# Outline: as §1
# Gal(a1-4)GlcNAc = target: Gal(a1-4)GlcNAc
# Outline: as §1
# Gal(a1-6)Glc = target: Gal(a1-6)Glc
# Outline: as §1
# Gal(b1-2)Gal = target: Gal(b1-2)Gal
# Outline: as §1
# Gal(b1-3)Gal = target: Gal(b1-3)Gal
# Outline: as §1
# Gal(b1-3)Gal(b1-4)GlcNAc = target: Gal(b1-3)Gal(b1-4)GlcNAc
# Outline: as §1
# [13] = target: Gal(b1-3)Gal(b1-4)GlcNAc(b1-2)Man(a1-3)[Gal(b1-3)Gal(b1-4)GlcNAc(b1-2)Man(a1-6)]Man(b1-4)GlcNAc(b1-4)GlcNAc
# Outline: as §1
# Gal(b1-3)GalNAc = target: Gal(b1-3)GalNAc
# Outline: as §1
# [14] = target: Gal(b1-3)GalNAc(a1-3)[Fuc(a1-2)]Gal(b1-4)Glc
# Outline: as §1
# [15] = target: Gal(b1-3)GalNAc(a1-3)[Fuc(a1-2)]Gal(b1-4)GlcNAc
# Outline: as §1
# [16] = target: Gal(b1-3)GalNAc(b1-3)Gal(a1-4)Gal(b1-4)Glc
# Outline: as §1
# [17] = target: Gal(b1-3)GalNAc(b1-4)Gal(b1-4)Glc
# Outline: as §1
# [18] = target: Gal(b1-3)GalNAc(b1-4)[Neu5Ac(a2-3)]Gal(b1-4)Glc
# Outline: as §1
# Gal(b1-3)GlcNAc = target: Gal(b1-3)GlcNAc
# Outline: as §1
# [19] = target: Gal(b1-3)GlcNAc(a1-3)Gal(b1-4)GlcNAc
# Outline: as §1
# [20] = target: Gal(b1-3)GlcNAc(a1-6)Gal(b1-4)GlcNAc
# Outline: as §1
# [21] = target: Gal(b1-3)GlcNAc(b1-2)Man(a1-3)[Gal(b1-3)GlcNAc(b1-2)Man(a1-6)]Man(b1-4)GlcNAc(b1-4)GlcNAc
# Outline: as §1
# [22] = target: Gal(b1-3)GlcNAc(b1-2)Man(a1-3)[Gal(b1-3)GlcNAc(b1-2)Man(a1-6)]Man(b1-4)GlcNAc(b1-4)[Fuc(a1-6)]GlcNAc
# Outline: as §1
# [23] = target: Gal(b1-3)GlcNAc(b1-2)Man(a1-3)[GlcNAc(b1-4)][Gal(b1-3)GlcNAc(b1-2)Man(a1-6)]Man(b1-4)GlcNAc(b1-4)GlcNAc
# Outline: as §1
# [24] = target: Gal(b1-3)GlcNAc(b1-2)[Gal(b1-3)GlcNAc(b1-6)]Man(a1-6)[Gal(b1-3)GlcNAc(b1-2)Man(a1-3)]Man(b1-4)GlcNAc(b1-4)GlcNAc
# Outline: as §1
binder,measurement,setting,value
"OrfX (Escherichia coli), Q9X4B6_ECOLX (protein) MIKIARIAVTLGLLSSLGAQAYAAGLVVNDNDLRNDLAWLSDRGVIHLSLSTWPLSQEEIARALKKAKPSYSSEQVVLARINQRLSALKADFRVTGYTSTDQPGTPQGFGQTQPADNSLGLAFNNSGEWWDVHLQGNVEGGERISNGSRFNANGAYGAVKFWNQWLSFGQVPQWWGPGYEGSLIRGDAMRPMTGFLMQRAEQAAPETWWLRWVGPWQYQISASQMNQYTAVPHAKIIGGRFTFTPFQSLELGASRIMQWGGEGRPQSFSSFWDGFTGHDNTGTDNEPGNQLAGFDFKFKLEPTLGWPVSFYGQMVGEDESGYLPSANMFLGGVEGHHGWGKDTVNWYVEAHDTRTNMSRTNYSYTHHIYKDGYYQQGYPLGDAMGGDGQLIAGKVELITEDNQRWSTRLVYAKVNPENQSINKAFPHADTLKGLQLGWSGDVYQSVRLNTSLWYTNANNSDSDDVGASAGIEIPFSL",glycan array binding signal (z-score),Gal(a1-3)Gal(b1-3)GlcNAc,-0.213
same,glycan array binding signal (z-score),[1],0.011
same,glycan array binding signal (z-score),[2],-0.08
same,glycan array binding signal (z-score),[3],-0.013
same,glycan array binding signal (z-score),[4],0.793
same,glycan array binding signal (z-score),Gal(a1-3)Gal(b1-4)Glc,-0.261
same,glycan array binding signal (z-score),Gal(a1-3)Gal(b1-4)GlcNAc,-0.274
same,glycan array binding signal (z-score),[5],-0.105
same,glycan array binding signal (z-score),[6],-0.23
same,glycan array binding signal (z-score),[7],-0.288
same,glycan array binding signal (z-score),[8],0.01
same,glycan array binding signal (z-score),Gal(a1-3)GalNAc,-0.336
same,glycan array binding signal (z-score),[9],-0.175
same,glycan array binding signal (z-score),[10],-0.18
same,glycan array binding signal (z-score),Gal(a1-4)Gal(b1-4)Glc,0.325
same,glycan array binding signal (z-score),Gal(a1-4)Gal(b1-4)GlcNAc,-0.022
same,glycan array binding signal (z-score),[11],0.031
same,glycan array binding signal (z-score),[12],-0.181
same,glycan array binding signal (z-score),Gal(a1-4)GlcNAc,-0.193
same,glycan array binding signal (z-score),Gal(a1-6)Glc,0.209
same,glycan array binding signal (z-score),Gal(b1-2)Gal,-0.204
same,glycan array binding signal (z-score),Gal(b1-3)Gal,-0.112
same,glycan array binding signal (z-score),Gal(b1-3)Gal(b1-4)GlcNAc,-0.203
same,glycan array binding signal (z-score),[13],-0.325
same,glycan array binding signal (z-score),Gal(b1-3)GalNAc,-0.236
same,glycan array binding signal (z-score),[14],-0.182
same,glycan array binding signal (z-score),[15],-0.321
same,glycan array binding signal (z-score),[16],-0.25
same,glycan array binding signal (z-score),[17],-0.211
same,glycan array binding signal (z-score),[18],-0.306
same,glycan array binding signal (z-score),Gal(b1-3)GlcNAc,-0.132
same,glycan array binding signal (z-score),[19],-0.298
same,glycan array binding signal (z-score),[20],-0.319
same,glycan array binding signal (z-score),[21],-0.164
same,glycan array binding signal (z-score),[22],-0.237
same,glycan array binding signal (z-score),[23],0.214
same,glycan array binding signal (z-score),[24],-0.334
